The campaign covered roughly 310,000 compounds. About 2,200 (0.71%) showed an effect of 50% or more. The effect is printed as a negative number. This is one part of the list.
Target: human ether-à-go-go-related gene (hERG) potassium channel (human, UniProt Q12809)
Experiment: primary screen, population patch clamp on CHO cells stably expressing hERG

human ether-à-go-go-related gene (hERG) potassium channel, sequence (Q12809 whole entry, looked up): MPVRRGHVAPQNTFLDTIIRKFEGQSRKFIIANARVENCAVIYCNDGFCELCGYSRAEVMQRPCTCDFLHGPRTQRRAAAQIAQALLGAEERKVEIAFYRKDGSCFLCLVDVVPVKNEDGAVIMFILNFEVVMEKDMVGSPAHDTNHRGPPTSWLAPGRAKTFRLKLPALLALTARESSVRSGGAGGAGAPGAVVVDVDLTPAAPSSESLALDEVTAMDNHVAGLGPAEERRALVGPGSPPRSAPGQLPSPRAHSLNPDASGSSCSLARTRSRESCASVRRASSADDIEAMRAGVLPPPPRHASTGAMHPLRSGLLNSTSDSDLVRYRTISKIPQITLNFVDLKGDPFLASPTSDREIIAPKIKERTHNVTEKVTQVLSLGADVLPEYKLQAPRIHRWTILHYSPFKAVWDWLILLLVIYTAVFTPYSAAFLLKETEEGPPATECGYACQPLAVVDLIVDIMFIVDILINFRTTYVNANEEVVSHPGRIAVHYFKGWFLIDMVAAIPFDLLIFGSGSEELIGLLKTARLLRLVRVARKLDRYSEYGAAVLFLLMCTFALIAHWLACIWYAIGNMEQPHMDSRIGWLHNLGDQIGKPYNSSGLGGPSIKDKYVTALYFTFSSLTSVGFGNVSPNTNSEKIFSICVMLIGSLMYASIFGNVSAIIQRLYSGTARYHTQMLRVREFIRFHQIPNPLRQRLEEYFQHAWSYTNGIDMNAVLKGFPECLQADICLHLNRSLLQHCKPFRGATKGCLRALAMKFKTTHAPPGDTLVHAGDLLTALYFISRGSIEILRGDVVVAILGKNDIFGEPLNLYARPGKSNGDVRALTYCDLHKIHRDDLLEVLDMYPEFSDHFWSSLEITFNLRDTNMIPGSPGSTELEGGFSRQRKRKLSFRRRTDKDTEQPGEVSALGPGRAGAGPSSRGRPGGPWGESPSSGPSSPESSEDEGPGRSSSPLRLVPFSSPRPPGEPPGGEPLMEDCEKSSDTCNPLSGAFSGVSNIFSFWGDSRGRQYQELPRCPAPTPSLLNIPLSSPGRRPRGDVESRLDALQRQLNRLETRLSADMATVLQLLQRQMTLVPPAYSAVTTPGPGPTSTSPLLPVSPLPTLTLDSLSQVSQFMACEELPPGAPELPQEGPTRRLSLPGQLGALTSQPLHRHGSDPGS

SMILES	hERG current change (%, negative = inhibition) at 1uM [%]
Cc1onc(-c2c(Cl)cccc2Cl)c1C(=O)Nc1nc(C(C)(C)C)cs1	16.1
COc1ccc(COc2cc(-c3cccc(OC)c3)nc3ccc(NC(C)=O)cc23)cc1	6.89
COc1ccc(Cn2c(O)c(C=Nc3ccc(C)cc3)c3ccccc3c2=O)cc1	-7.11
Cc1c(-n2c(=S)[nH]c3ccccc3c2=O)c(=O)n(-c2ccccc2)n1C	12.3
O=C(NCCSCc1ccccc1)c1ccc(Cl)c(S(=O)(=O)N2CCOCC2)c1	-0.515
COc1ccc(C(=O)N/C(=C/c2cccs2)C(=O)NN)cc1OC	14.2
CC(=O)Nc1ccccc1OCc1nnc(-c2cccs2)o1	15.1
CC12CCC(c3nnc(SCc4ccc(Cl)cc4)nc31)C2(C)C (stereo not shown)	7.3
O=C(CN1C(=O)NC(Cc2c[nH]c3ccccc23)C1=O)NCCc1ccccc1 (stereo not shown)	13.1
CCc1noc(C)c1C(=O)Nc1ccc(C#N)cc1	1.59
CN1CCN(C2=Cc3ccc(Cl)cc3Sc3ccc(F)cc32)CC1.CS(=O)(=O)O.O	11.5
COc1ccccc1C1c2[nH]c3ccccc3c2CCN1Cc1ccc(NC(C)=O)s1 (stereo not shown)	5.99
CC(C)Oc1ccccc1NC(=O)CSc1nccn1C	12.8
CC(C)=C1C2CCC1C(C(=O)Nc1cc(C)cc(C)c1)C2C(=O)O (stereo not shown)	14.1
O=c1[nH]c2ccccc2n1Cc1ccc(F)cc1	6.71
CCc1c(C)c2cc(Cl)c(O)c(CN3CCCC3)c2oc1=O	13.2
CCN(C(=O)COC(=O)c1c(-c2ccccc2)noc1C)c1c(N)n(Cc2ccccc2)c(=O)[nH]c1=O	10.7
O=C(Nc1ccccc1)c1ccc2nsnc2c1	-2.07
O=C(C1CC1)N1CCN=C1SCc1ccc(F)cc1	7.65
O=C(COC(=O)c1ccc(S(=O)(=O)NCc2ccco2)cc1)NCc1ccc(F)cc1	1.83

SMILES	hERG current change (%, negative = inhibition) at 1uM [%]
O=C(Nc1nncs1)C1CCCC1	16.7
COc1ccc(/C=C/C(=O)C(C(N)=O)=C2SCCS2)cc1	1.22
COc1ccc(S(=O)(=O)NCCCc2ccccc2)cc1	7.61
COc1ccc(Nc2nccc(OC)c2C#N)cc1	-20.1
COc1cccc(/C=C/c2ccncc2)c1OC.Cl	6.25
Cc1cc(-c2nc3ncccc3o2)ccc1NC(=S)NC(=O)C(C)C	-0.865
O=C(NCCN1CCOCC1)C(=O)NCC1CCCO1 (stereo not shown)	1.85
Cc1cc(NC(=O)CSc2nc(C(C)C)nc3sc(C)c(C)c23)no1	14.1
Cc1cc(C)cc(N=C2NC(=O)/C(=C/c3cccs3)S2)c1	9.05
CCc1ccc2c(c1)c1nnc(NN)nc1n2CC	7.94
Cn1c(C(=O)NC2CCCCCC2)cc2c(=O)n(C)c3ccccc3c21	9.46
COc1cccc(C2=CC(c3cc(OC)ccc3OC)n3nnnc3N2)c1 (stereo not shown)	15.2
Cc1ccc(C(=O)NCCNC(=O)c2ccccn2)cc1	8.75
CCN(CC)c1nc2ccccc2nc1-n1nc(C)cc1C	3.94
CC1Cn2c(nnc2-c2cccc(Cl)c2)S1 (stereo not shown)	5.03
Cc1ccccc1NS(=O)(=O)c1ccc2[nH]c(=O)[nH]c2c1	9.86
Clc1ccc2c(c1)C(c1ccccc1Cl)=NCc1nncn1-2	2.33
Cc1cc(C2=NNC(=NC3CC3)SC2)c(C)n1-c1ccccc1F	5.81
CCOC(=O)C1CCN(C(=O)CCn2c(=O)[nH]c3ccccc3c2=O)CC1	6.43
CCOC(=O)c1ccc2c(c1)n(CC)c(/C=C/Nc1ccccc1)[n+]2CC.[I-]	-86.7

SMILES	hERG current change (%, negative = inhibition) at 1uM [%]
N#Cc1c(SCc2ccc(Cl)cc2)sc(C(=O)c2ccccc2)c1N	15.2
Cc1c(C(=O)NCCC2=CCCCC2)oc2ccc(S(=O)(=O)N3CCOCC3)cc12	-3.51
O=C1/C(=C/c2coc3ccc(O)cc3c2=O)SC(=S)N1c1ccccc1	15.4
CCOC(=O)N1CCN(C(=O)CCC(=O)N2CCOc3ccc(C)cc32)CC1	9.32
COc1ccc(CCNC(=O)/C=C/c2ccco2)cc1OC	5.95
CC(C)n1nccc1N(Cc1ccc(C#N)cc1)S(=O)(=O)c1ccccc1	-5.13
C#CCSc1nc2ccccc2n1C(=O)c1ccc(S(=O)(=O)N2CCCCC2)cc1	6.52
CCOC(=O)c1sc(N)c(C#N)c1CSc1nc2ccc(C)cc2[nH]1	4.05
O=C(c1cnn2c(C(F)(F)F)cc(-c3ccco3)nc12)N1CCCc2ccccc21	-1.81
Cc1cc(N2CCOCC2)nc(-c2ccccc2O)n1	7.78
CC1CCN(C(=O)c2ccc(NS(=O)(=O)c3cccs3)cc2)CC1	15.7
CCOC(=O)c1sc2nc(C)nc(SCC(=O)NC3CCS(=O)(=O)C3)c2c1C (stereo not shown)	6.57
O=C(c1oc(=O)c2ccccc2c1-c1ccccc1)N1CCOCC1	-6.9
O=C(N/N=C/c1ccoc1)c1ccc(Cl)cc1	-14.6
CCC(C)n1c(SCC(=O)NCCc2ccc(S(N)(=O)=O)cc2)nc2ccsc2c1=O (stereo not shown)	8.94
Br.COC(=O)c1ccc(CN2CCSC2=N)cc1	13.5
CCc1nc(SCC(=O)N2CCN(C(=O)c3ccco3)CC2)c2c3c(sc2n1)CCCC3	-22.4
Cc1ccc(NC(=O)COC(=O)C2CC3CCCC(C2)C3=O)c([N+](=O)[O-])c1 (stereo not shown)	9.56

Reference: paper PMC4336329 (PLoS ONE, 2015)
